Measurements published in the RNAGym collection of RNA variant scans (doi:10.1093/nar/gkz1192).
Read counts are not given, so values of variants with three or more changes are uncertain.

B1: CPEB3 Ribozyme (parent)
chain: UAACAGGGGGCCACAGCAGAAGCGUUCACGUCGCAGCCCCUGUCAGAUUCUGGUGAAUCUGCGAAUUCUGCUGUAUAUCUC

Variants of: B1
Assay: self-cleavage, relative activity (ratio to wild type); higher = more cleavage; in vitro, sequencing
In short: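 CPEB3 self-cleaving ribozyme mutant libraries were made by rounds of error-prone PCR, barcoded, and transcribed in vitro with T7 RNA polymerase for 5 hours at 37°C. Cleavage occurred during transcription and a 15 min DNase I step before EDTA stop. RNAs were reverse transcribed with template switching and Illumina-sequenced, with DNA sequencing mapping barcodes to variants. Relative activity is the variant's cleaved/total read fraction divided by wild type's (minimum 5 reads), averaged across three batches.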
Variant UAACAGGGGGCCACAGCUGAAGCGAUCGCGUCGCAGCCCCUGUCAGAUUCUGGUGAAUCUGCGAAUUCUGCUGUAUAUCUC [A18U U25A A28G] has a self-cleavage of 0.25. Variant UAACAGGGGGCCACAGCUGAAGCGAUCACGUCGCGGCCCCUGUCAGAUUCUGGUGAAUCUGCGAAUUCUGCUGUAUACCUC [A18U U25A A35G U78C] has a self-cleavage of 0.19. Variant UAACAGGGGGCCACAGCUGAAGCGAUCACGUCGCAGCCCCUGUCAGAUUCUGGUGGAUCUGCGAAUUCUGCUGUAUAUCUC [A18U U25A A56G] has a self-cleavage of 0.11. With UAACAGGGGGCCACAGCUGAAGCGAUCACGUCGCAGCCCCUGUCAGAUUCUGGUGAGUCUGCGGAUUCUGUCGUAUAUCUC [A18U U25A A57G A64G C71U U72C] the self-cleavage was 0.04. In the case of UAACAGGGGGCCACAGCUGAAGCGAUCACGUCGGAGCCCCUGUCAGAUUCUGGUGAAUCUGCGAAUUCUGCUGUACAUCUC [A18U U25A C34G U76C], the self-cleavage is reported as 0.05. With UAACAGGGGGCCACAGCUGAAGCGACCACGCCGCAGCCCCCGUCAGAUUCUGGUGAAUCUGCGAAUUCUGCUGUAUAUCUC [A18U U25A U26C U31C U41C] the self-cleavage was 0.26. For UAACAGGGGGCCACAGCUGAAGCGAGCAAGUCGCAGCCCCUGCCAGAUUCUGGUGAAUCUGGGAACUCUGCUGUAUAUCUC [A18U U25A U26G C29A U43C C62G U66C], the self-cleavage was 0.17. For UAACAGGGGGCCACAGCUGAAGCGAUCACGACGCAGCCCCGGUCAGCUUCCGGUGAAUCUGCGAAUUCUGCUGUAUCUCUC [A18U U25A U31A U41G A47C U51C A77C], the self-cleavage was 0.17. For UAACAGGGGGCCACAGCUGAAGCGAUCACGCCGCAGCCCCUGUCAGAUUCUGGUGAGUCUGCGAACUCUGCCGUAUGUCUC [A18U U25A U31C A57G U66C U72C A77G], the self-cleavage was 0. UAACAGGGGGCCACAGCUGAAGCGAUCACGUCGCAGCCCCGGUCAGAUUCUGGUGAAUCUGCGAAUUCUGCUGUAUAUCUC [A18U U25A U41G] gave a self-cleavage of 0.09. UAACAGGGGGCCACAGCUGAAGCGAUCACGUCGCAGCCCCUGUCAGAUUCAGGAGAAUCUGCGAAUUCUGCUGUAUAUCCC [A18U U25A U51A U54A U80C] showed a self-cleavage of 0.07. With UAACAGGGGGCCACAGCUGAAGCGAUCACGUCGCAGCCCCUGUCAGAUUCUGGCGAAUCUGCUAAUUUUGCUGUAUAUCUC [A18U U25A U54C G63U C68U] the self-cleavage was 0.18. In the case of UAACAGGGGGCCACAGCUGAAGCGAUCACGUCGCAGCCCCUGUCAGAUUCUGGUGAAUCUGCGAAUCCUGCUGUAUAUCAC [A18U U25A U67C U80A], the self-cleavage is reported as 0.2. UAACAGGGGGCCACAGCUGAAGCGCUCCCGUCGCAGCCCCUGUCAGAUUCUGGUGAAUCUGCGAAUUCUGCUGUAUAUCUC [A18U U25C A28C] showed a self-cleavage of 0.31. UAACAGGGGGCCACAGCUGAAGCGCUCCCGUCGCAGCCCCUGUCAGAUUCUGGUGAAUCAGCGAAUUCAGCUGUAUAUCAC [A18U U25C A28C U60A U69A U80A] showed a self-cleavage of 0.3. Work on UAACAGGGGGCCACAGCUGAAGCGCUCUCGUCGCAGCCCCUGCCUGGUUCUGGUGAAUCUGCGUAUUCUGCUGUAUAUCUC [A18U U25C A28U U43C A45U A47G A64U] yielded a self-cleavage of 0.06. UAACAGGGGGCCACAGCUGAAGCGCUCACGUCGCGGCCCCUGCCGGAUUCUGGUGAAUCUGCGAAUUCUGCUGUAUAUCUC [A18U U25C A35G U43C A45G] showed a self-cleavage of 0.12. With UAACAGGGGGCCACAGCUGAAGCGCUCACGUCGCGGCCCCUGUCAGAUUCUGGUGAAUCUGCGAAUUCUGCUGUAUAUCCC [A18U U25C A35G U80C] the self-cleavage was 0.43. With UAACAGGGGGCCACAGCUGAAGCGCUCACGUCGCUGCCCCUGUCAGAUUCUGGUGAAUCUGCGGAUUCUGCUGUAUAUCUC [A18U U25C A35U A64G] the self-cleavage was 0.11. UAACAGGGGGCCACAGCUGAAGCGCUCACGUCGCAGCCCCUGUCGGAUUCUGGAGAAUCUGCGAAUUCUGCUGUAUAUCUC [A18U U25C A45G U54A] showed a self-cleavage of 0.19. UAACAGGGGGCCACAGCUGAAGCGCUCACGUCGCAGCCCCUGUCUGAUUCUGGUGAAUCUGCGAUUUCUGCUGUAGAUCUC [A18U U25C A45U A65U U76G] showed a self-cleavage of 0.05. For UAACAGGGGGCCACAGCUGAAGCGCUCACGUCGCAGCCCCUGUCAGGUUCUGGUGAAUCUGCGAAUUCAGCUGUAUAACUC [A18U U25C A47G U69A U78A], the self-cleavage was 0.07. UAACAGGGGGCCACAGCUGAAGCGCUCACGUCGCAGCCCCUGUCAGAUUCUGGUGGAUCUGCGAAUUAUGCAGUAUAUCUC [A18U U25C A56G C68A U72A] showed a self-cleavage of 0.12. For UAACAGGGGGCCACAGCUGAAGCGCUCAGGUCGCAGCCCCUGUCAGAUUCUGGUGAAUCUGCGAAUUCUGCUGUAUAUCCC [A18U U25C C29G U80C], the self-cleavage was 0.21. Work on UAACAGGGGGCCACAGCUGAAGCGCUCAUGUCGCAGCCCCCGUCAGAUUCUGGUGUAUCUGCGAAUUCUGCUGUAAAUCUC [A18U U25C C29U U41C A56U U76A] yielded a self-cleavage of 0.17. UAACAGGGGGCCACAGCUGAAGCGCUCACGUCGCAGCCCCUGUCAGAUUAUGGUGAAUCUGCGAAUUCUGCUGUAUAUCUC [A18U U25C C50A] gave a self-cleavage of 0.37. UAACAGGGGGCCACAGCUGAAGCGCUCACGUCGCAGCCCCUGUCAGAUUAUGGAGAAUCUGCGAAUCCUGCAGUAUAUCUC [A18U U25C C50A U54A U67C U72A] gave a self-cleavage of 0.1. For UAACAGGGGGCCACAGCUGAAGCGCUCACGUCGCAGCCCCUGUCAGAUUCUGGUGAAUCUGCGAAUUCUGCUGUAUAUCUA [A18U U25C C81A], the self-cleavage was 0.19. Variant UAACAGGGGGCCACAGCUGAAGCGCUCACGUCGCAACCCCUGUCAGAUUCUGGUGAAUCUGCGAAUUCUGCUGUAUAUCUC [A18U U25C G36A] has a self-cleavage of 0.2. In the case of UAACAGGGGGCCACAGCUGAAGCGCCCUCGUCGCAGCCCCUGUCAGAUUCUGGUGAAUCUGCGAAUUCUGCUGUAUAUCUC [A18U U25C U26C A28U], the self-cleavage is reported as 0.04. UAACAGGGGGCCACAGCUGAAGCGCUCACGACGCAGCCCCUGUCAGAUUCUGGUGAAUCUGCGGAUUCUGCUGUAUAUCUC [A18U U25C U31A A64G] showed a self-cleavage of 0.08. Work on UAACAGGGGGCCACAGCUGAAGCGCUCACGACGCAGCCCCCGUCGGAUUCUGGUGAAUCUGCGAUUUCUGCUGUAUAUCUC [A18U U25C U31A U41C A45G A65U] yielded a self-cleavage of 0.06. UAACAGGGGGCCACAGCUGAAGCGCUCACGACGCAGCCCCUGUCAGAUUCUGGUGAAUCCGCGAAUCCUGCUGUAUGUCUC [A18U U25C U31A U60C U67C A77G] showed a self-cleavage of 0.07. With UAACAGGGGGCCACAGCUGAAGCGCUCACGCCGCAGCCCCUGUCAGUUUCUGGUGAAUCUGCGAAUUCAGCUGUGUAUCUC [A18U U25C U31C A47U U69A A75G] the self-cleavage was 0.06.
